Reference: a collection of fitness landscapes (doi:10.1016/j.celrep.2020.107928)
In all, about 81,000 sequences were measured (“one-hybrid fitness for binding parS DNA”: median about -0.17, highest 2% from about 0.51 on). Some of the results follow.

B1: Caulobacter ParB omega fusion; a variant is named by its letters at X, in order, B8GW30 (parent)
chain: MESVVVGEPGMSEGRRGLGRGLSALLGEVDAAPAQAPGEQLGGSREAPIEILQRNPDQPRRTFREEDLEDLSNSIREKGVLQPILVRPSPDTAGEYQIVAGERAWRAAQRAGLKTVPIMVRELDDLAVLEIGIIENVQRADLNVLEEALSYKVLMEKFERTQENIAQTIGKSXSHVANXMRLLXLPDEVQSYLVSGELTAXHARAIAAAADPVALAKQIIEGGLSVRETEALARKAPNLSAGKSKGGRPPRVKDTDTQALESDLSSVLGLDVSIDHRGSTGTLTITYATLEQLDDLCNRLTRGI

Variants of: B1
Assay: one-hybrid fitness for binding parS DNA (scaled: cognate 1, non-cognate 0); higher = stronger binding
Settings: with parS DNA site
Summary of the method: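 In E. coli USO, a HIS3 reporter with its site placed 19 bp from the promoter was used to select Caulobacter ParB variants randomised at four specificity codons. Growth lasted 48 hours at 37°C on histidine-free M9 containing 0.1 mM IPTG and 5 mM 3-AT. Fitness was taken as the log change in variant-to-wild-type read ratio from Illumina sequencing of pre- and post-selection plasmids, rescaled between the non-cognate and cognate sites.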

Variant | one-hybrid fitness for binding parS DNA
WLKS | ≤ 0.2
YYTF | ≤ 0.2
EPSA | ≤ 0.2
HARH | ≤ 0.2
GQYS | ≤ 0.2
QGHI | ≤ 0.2
TASV | ≤ 0.2
DYNV | ≤ 0.2
WFCT | ≤ 0.2
SRGF | ≤ 0.2
RVSS | 0.975
YTRT | ≤ 0.2
REMT | ≤ 0.2
PLNE | ≤ 0.2
LDLF | ≤ 0.2
ARRE | ≤ 0.2
QLFV | ≤ 0.2
KCRT | ≤ 0.2
ACAI | ≤ 0.2
LFMR | ≤ 0.2
GHCH | ≤ 0.2
KILI | ≤ 0.2
DSSF | ≤ 0.2
ALFF | ≤ 0.2

Variant | one-hybrid fitness for binding parS DNA
WEAS | ≤ 0.2
AFTG | ≤ 0.2
RDKP | ≤ 0.2
SEQD | ≤ 0.2
KRYP | ≤ 0.2
YPSS | ≤ 0.2
MHHG | ≤ 0.2
IPPA | ≤ 0.2
TTNR | ≤ 0.2
RCND | ≤ 0.2
SDQI | ≤ 0.2
QSGM | ≤ 0.2
HSFC | ≤ 0.2
RLPW | ≤ 0.2
EVPA | ≤ 0.2
RRHE | ≤ 0.2
THHG | ≤ 0.2
CNKR | ≤ 0.2
EAKR | ≤ 0.2
ICWS | ≤ 0.2
RASM | 0.326
NVVG | ≤ 0.2
LMMM | ≤ 0.2
SHHR | ≤ 0.2

Variant | one-hybrid fitness for binding parS DNA
RQYK | ≤ 0.2
CMGL | ≤ 0.2
IINT | ≤ 0.2
QCGA | ≤ 0.2
RRAD | ≤ 0.2
ATIV | ≤ 0.2
GPSC | ≤ 0.2
LNNR | ≤ 0.2
SNPA | ≤ 0.2
RQTV | ≤ 0.2
SGQH | ≤ 0.2
TVYC | ≤ 0.2
QNST | ≤ 0.2
LDLI | ≤ 0.2
TPPT | ≤ 0.2
KRTS | ≤ 0.2
KKKK | ≤ 0.2
TTGT | ≤ 0.2
EELL | ≤ 0.2
RAYR | ≤ 0.2
KSCC | ≤ 0.2
FDHL | ≤ 0.2
HSYD | ≤ 0.2
RGKM | 0.249

Variant | one-hybrid fitness for binding parS DNA
HSTK | ≤ 0.2
PNMC | ≤ 0.2
ASNI | ≤ 0.2
TWFT | ≤ 0.2
MDFR | ≤ 0.2
RNMV | ≤ 0.2
PYAL | ≤ 0.2
CGHC | ≤ 0.2
PAML | ≤ 0.2
LTKP | ≤ 0.2
RKYG | 0.952
EKRC | ≤ 0.2
GFIS | ≤ 0.2
HPVE | ≤ 0.2
NVGG | ≤ 0.2
TKTC | ≤ 0.2
SNSD | ≤ 0.2
YTRF | ≤ 0.2
TMDS | ≤ 0.2
ATDL | ≤ 0.2
RLKN | 0.458
SPFM | ≤ 0.2
IWKT | ≤ 0.2
SDVL | ≤ 0.2

Variant | one-hybrid fitness for binding parS DNA
DIND | ≤ 0.2
YGVW | ≤ 0.2
QDTN | ≤ 0.2
VWLT | ≤ 0.2
QWKC | ≤ 0.2
HICC | ≤ 0.2
QTQT | ≤ 0.2
RTRL | ≤ 0.2
RAGK | ≤ 0.2
QKII | ≤ 0.2
RASR | ≤ 0.2
QMRN | ≤ 0.2
AHGE | 0.38
CCRA | ≤ 0.2
PLTS | ≤ 0.2
DEVR | ≤ 0.2
YTSM | ≤ 0.2
MAKW | ≤ 0.2
QSSN | ≤ 0.2
VGWS | ≤ 0.2
RIIM | 0.273
SSFR | ≤ 0.2
QIKE | ≤ 0.2
RRRI | ≤ 0.2

Variant | one-hybrid fitness for binding parS DNA
KAPS | ≤ 0.2
HASR | ≤ 0.2
CWLR | ≤ 0.2
WLKR | ≤ 0.2
ELTI | ≤ 0.2
RPDV | ≤ 0.2
QHGP | ≤ 0.2
KGPT | ≤ 0.2
WKTV | ≤ 0.2
TRTL | ≤ 0.2
PWAG | ≤ 0.2
FKNR | ≤ 0.2
RLNA | 0.62
SADL | ≤ 0.2
FQLG | ≤ 0.2
QPHW | ≤ 0.2
NPPR | ≤ 0.2
GTQT | ≤ 0.2
DLCR | ≤ 0.2
ANTS | ≤ 0.2
KCDS | ≤ 0.2
CHYD | 0.273
AADF | ≤ 0.2
PCEL | ≤ 0.2

Variant | one-hybrid fitness for binding parS DNA
PLVD | ≤ 0.2
MRYT | ≤ 0.2
SFRC | ≤ 0.2
QQCT | ≤ 0.2
HMVG | ≤ 0.2
RWQD | ≤ 0.2
RRAK | ≤ 0.2
KASP | ≤ 0.2
QKCW | ≤ 0.2
FADA | ≤ 0.2
THNL | ≤ 0.2
RKAF | ≤ 0.2
ELRE | ≤ 0.2
RIIQ | ≤ 0.2
IGTS | ≤ 0.2
RCDF | 0.213
RVGC | 0.934
LKNT | ≤ 0.2
SQPL | ≤ 0.2
LEPL | ≤ 0.2
IWLS | ≤ 0.2
GHVD | ≤ 0.2
LFMS | ≤ 0.2
LTMF | ≤ 0.2

Variant | one-hybrid fitness for binding parS DNA
QYYA | ≤ 0.2
ATSY | ≤ 0.2
PQAE | ≤ 0.2
RFPA | ≤ 0.2
HRTC | 0.341
FRLK | ≤ 0.2
RLFN | 0.395
AQCR | ≤ 0.2
WCER | ≤ 0.2
TDYL | ≤ 0.2
VIDN | ≤ 0.2
YNSV | ≤ 0.2
AYTR | ≤ 0.2
GMER | ≤ 0.2
YNRM | ≤ 0.2
QTPL | ≤ 0.2
HMQS | ≤ 0.2
RQEV | ≤ 0.2
WLPT | ≤ 0.2
VAGM | ≤ 0.2
ACVT | ≤ 0.2
HVGP | ≤ 0.2
KQCR | ≤ 0.2
REAV | ≤ 0.2

Variant | one-hybrid fitness for binding parS DNA
VRHL | ≤ 0.2
YQVR | ≤ 0.2
DHVA | ≤ 0.2
SCTK | ≤ 0.2
IVIR | ≤ 0.2
EPFR | ≤ 0.2
WVKT | ≤ 0.2
RVEG | 0.813
PLDG | ≤ 0.2
VNNN | ≤ 0.2
SGVI | ≤ 0.2
AAHL | ≤ 0.2
QLCL | ≤ 0.2
FQTG | ≤ 0.2
TDNR | ≤ 0.2
PWRY | ≤ 0.2
MTAT | ≤ 0.2
NVGC | ≤ 0.2
AHSI | ≤ 0.2
FLMR | ≤ 0.2
RMNE | ≤ 0.2
QRTG | ≤ 0.2
LSDG | ≤ 0.2
WMNV | ≤ 0.2

Variant | one-hybrid fitness for binding parS DNA
GEYT | ≤ 0.2
ARIL | ≤ 0.2
PWVY | ≤ 0.2
RSFC | 0.892
LVWD | ≤ 0.2
WLNC | ≤ 0.2
QMGA | ≤ 0.2
VIAN | ≤ 0.2
RKDW | ≤ 0.2
QTGD | ≤ 0.2
PVRT | ≤ 0.2
MVSA | ≤ 0.2
HRNE | ≤ 0.2
FPRG | ≤ 0.2
LVLM | ≤ 0.2
SAKF | ≤ 0.2
WGVS | ≤ 0.2
EITG | ≤ 0.2
SCSI | ≤ 0.2
LAGG | ≤ 0.2
MPRP | ≤ 0.2
PVIG | ≤ 0.2
SERW | ≤ 0.2
LTND | ≤ 0.2

Variant | one-hybrid fitness for binding parS DNA
DRQV | ≤ 0.2
DPSH | ≤ 0.2
IEAR | ≤ 0.2
DVYG | ≤ 0.2
GVQV | ≤ 0.2
QTMD | ≤ 0.2
PRVQ | ≤ 0.2
TRPN | ≤ 0.2
KAAY | ≤ 0.2
PWAS | ≤ 0.2
MMLF | ≤ 0.2
ESRC | ≤ 0.2
SICY | ≤ 0.2
TYYY | ≤ 0.2
RTVE | ≤ 0.2
RQYA | 0.583
EPGF | ≤ 0.2
QPDK | ≤ 0.2
PEVT | ≤ 0.2
HAPC | ≤ 0.2
SMNV | ≤ 0.2
TNQS | ≤ 0.2
SQTM | ≤ 0.2
KACG | ≤ 0.2

Variant | one-hybrid fitness for binding parS DNA
QSVM | ≤ 0.2
MATH | ≤ 0.2
ATCW | ≤ 0.2
RGYI | ≤ 0.2
FMKF | ≤ 0.2
RSYQ | ≤ 0.2
ICSL | ≤ 0.2
ALKN | ≤ 0.2
MDSC | ≤ 0.2
LTAR | ≤ 0.2
SIEL | ≤ 0.2
WIAS | ≤ 0.2
VLQP | ≤ 0.2
RAMG | 0.995
MDPA | ≤ 0.2
ECNC | ≤ 0.2
IRVG | ≤ 0.2
FEMN | ≤ 0.2
PYQR | ≤ 0.2
QCTK | ≤ 0.2
SAAP | ≤ 0.2
RVCQ | ≤ 0.2
EHMT | ≤ 0.2
TKYC | ≤ 0.2

Variant | one-hybrid fitness for binding parS DNA
QKRE | ≤ 0.2
EPAL | ≤ 0.2
FKKG | ≤ 0.2
FLKN | 0.249
VEIT | ≤ 0.2
KRVR | 0.276
RHCP | ≤ 0.2
HAMG | ≤ 0.2
IRDG | ≤ 0.2
QRWI | ≤ 0.2
VTRG | ≤ 0.2
RVVA | 0.565
TSSW | ≤ 0.2
AVEC | ≤ 0.2
HWPT | ≤ 0.2
YFAA | ≤ 0.2
LMKK | ≤ 0.2
MNYW | ≤ 0.2
